Experimental data reported in ChEMBL document CHEMBL4888484, “Replenishing the malaria drug discovery pipeline: Screening and hit evaluation of the MMV Hit Generation Library 1 (HGL1) against asexual blood stage Plasmodium falciparum ,using a nano luciferase reporter read-out” (2022).
Where “and” joins values, the source holds several entries; their conditions need not be identical. Equal values may be shown once. The campaign covered roughly 150,000 compounds. About 540 (0.36%) showed an effect of 50% or more. Some of the results follow.

System: Plasmodium falciparum
Test: Primary screen in NF54 nanoGlo assay, in single point, at 2uM, 72h; a lower Z score goes with more inhibition
Type: functional, Erythrocyte
Details: timepoint 72 hour

Cc1noc(C)c1C(=O)N1CCOC2CCCCC21 (stereo unspecified)
% Inhibition: -10%
Z score: 1.37

CCn1nnnc1NC(=O)NCC[C@H]1CCC2(CCC2)O1
% Inhibition: -5%
Z score: 1.06

Cc1ccc2nc(-c3ccc(C)o3)c(NC(=O)c3ccc(F)cc3)n2c1
% Inhibition: -9%
Z score: 1.24

COC(=O)N1CCc2ccc(Br)cc2[C@@H]1C(=O)NCc1ccc2c(c1)OCO2
% Inhibition: 0%
Z score: 0.07

CCn1nc(C2CCOCC2)nc1C[C@@H]1NC(=O)c2ccccc21
% Inhibition: -4%
Z score: 0.52

N#Cc1cn[nH]c1NC(=O)C(=O)N1CCN(c2ccc(F)cc2)CC1
% Inhibition (2 µM): -7% and -4%
Z score (2 µM): 0.9 and 0.47

CS(=O)(=O)NC[C@H]1CCOC2(CCN(C(=O)c3cncc(Br)c3)CC2)C1
% Inhibition: -12%
Z score: 1.93

CNC(=O)C1CN([C@@H](C)C(=O)OC(C)(C)C)C1
% Inhibition: 0%
Z score: 0

COc1cc(NC(=O)[C@H]2CCCN(c3cc(=O)n(C)c(=O)n3C)C2)cc(OC)c1OC
% Inhibition: -1%
Z score: 0.09

Cc1noc(NC(=O)c2cc3c(F)cccc3s2)n1
% Inhibition: -3%
Z score: 0.41

Cc1cccc(C)c1NC(=O)CN(CC(=O)Nc1c(C)cccc1C)Cc1ccccc1C(F)(F)F
% Inhibition: 0%
Z score: -0.07

COc1cccc(-c2nc3ccc(-c4cccc(C(F)(F)F)c4)cn3c2CCC(=O)NC2CCCCC2)c1
% Inhibition: 1%
Z score: -0.06

O=S(=O)(Nc1ccc(-c2nc3ccc(Cl)cc3s2)c(Cl)c1)c1ccccc1Cl
% Inhibition: -9%
Z score: 1.61

Cc1noc(C2CN(C(=O)CCc3c(C)noc3C)C2)n1
% Inhibition: 1%
Z score: -0.09

Cc1ccccc1[C@H](C)NS(=O)(=O)c1ccc(Cl)c(-c2nnn[nH]2)c1
% Inhibition: -11%
Z score: 1.43

Cc1noc([C@H](C)OC(=O)c2cc3c(cc2O)CCCC3)n1
% Inhibition: -10%
Z score: 1.03

CCOc1ccc(C(=O)N2CCN(c3cc(N4CCN(C)CC4)ncn3)CC2)cc1
% Inhibition: -10%
Z score: 1.22

CCn1ncc(C(CC(=O)c2ccccc2)CC(=O)c2ccccc2)c1C
% Inhibition: -8%
Z score: 1.07

COC[C@H]1CN(c2nc(-c3ccccc3)ns2)CCO1
% Inhibition: -10%
Z score: 1.39

CO[C@H]1[C@H](NC(=O)c2ccco2)c2ccccc2C12CCN(Cc1c[nH]cn1)CC2
% Inhibition: -6%
Z score: 1.08

CC(C)(O)[C@H](O)C(=O)N1CCc2cc(Br)c(F)cc2C1
% Inhibition: 4%
Z score: -0.52

C[C@H](NCCN1CCCS1(=O)=O)c1cc2cc(Cl)ccc2o1
% Inhibition: -8%
Z score: 1.4

Cc1cc(C(=O)N[C@H]2CC[C@H](Oc3nccnc3C#N)CC2)no1
% Inhibition: -12%
Z score: 1.39

CC(C)(C)NC(=O)NCc1nnc(C(=O)Nc2ccc3c(c2)OCO3)s1
% Inhibition: 10%
Z score: -1.2

O=C(c1ccc2c(c1)OCO2)N1CCC[C@@]2(C1)NC(=O)N(Cc1ccccc1)C2=O
% Inhibition: -5%
Z score: 0.65

CC(C(=O)NCC1CCCO1)N1CC(C)(C)C1C1CCCO1 (stereo unspecified)
% Inhibition: 15%
Z score: -1.95

c1cc2ccc(NCc3nc4c(s3)CCCC4)nc2[nH]1
% Inhibition: -8%
Z score: 1.51

COc1ccc(-n2ncc3c(NCCNC(=O)C4CCCC4)nc(C)nc32)cc1
% Inhibition: -5%
Z score: 0.61

Cc1noc(C)c1C(=O)Nc1sc2c(c1C(=O)N1CCOCC1)CC[C@H](C)C2
% Inhibition: -4%
Z score: 0.5

COc1ccc(NC(=O)Nc2c(-c3ccc(C(F)(F)F)cc3)n[nH]c2C2CC2)c(OC)c1
% Inhibition: 8%
Z score: -1.45

CC(C)C[C@@H](N)C(=O)N(Cc1cnn(C)c1)C(C)C
% Inhibition: 1%
Z score: -0.17

O=C1c2cccn2CC1C(O)c1ccncc1 (stereo unspecified)
% Inhibition: -47%
Z score: 5.55

ClC1(Cl)C[C@@H]1CCN1CCN(Cc2cocn2)CC1
% Inhibition: -9%
Z score: 1.01

C[C@H]1C[C@@H](CO)CCN1C(=O)Cc1cccc(C2CC2)c1
% Inhibition: -9%
Z score: 1.43

Cc1csc(CNC(=O)Cc2sc(N)nc2C)n1
% Inhibition: -17%
Z score: 2.55

CN(C)c1nccc(N(C)CCN2CCOCC2)n1
% Inhibition: -13%
Z score: 1.14

Cc1cc(NC(=O)c2sc(NCc3ccccc3)nc2C)ccc1F
% Inhibition: 8%
Z score: -1.1

COc1ccc(Cn2c(C)cnc2[C@@H]2CCCN2C(=O)Cc2c(C)noc2C)cc1
% Inhibition: -11%
Z score: 1.5

N#CC1CCN(c2cc([C@H]3CCOC3)nc(N3CC(O)C3)n2)CC1
% Inhibition: -4%
Z score: 0.71

COc1ccc2ncc(C(=O)NC3(c4ccccc4C)CCC3)n2n1
% Inhibition: 7%
Z score: -0.8

CCc1ccccc1NC(=O)CN1CCN(Cn2ncsc2=S)CC1
% Inhibition: 0%
Z score: -0.04

CC1CCC(NC(=O)Nc2ccc(F)c(C3CC3)c2)CS1(=O)=O (stereo unspecified)
% Inhibition: -5%
Z score: 0.65

CC1CCC(C(N)=O)CN1C(=O)c1cccc2[nH]ncc12 (stereo unspecified)
% Inhibition: -15%
Z score: 1.36

CC(C)CC(=O)Nc1cc(F)cc(F)c1
% Inhibition: 4%
Z score: -0.71

O=C(C1C2CCCCC21)N1CCCCCC1c1noc(-c2ccccc2)n1 (stereo unspecified)
% Inhibition: -20%
Z score: 3.85

Cc1csc(C(=O)N2CCC[C@H](Oc3cccnn3)C2)c1
% Inhibition: -7%
Z score: 0.82

Cc1c(C(=O)Nc2cc(F)ccc2OC(F)F)cnn1-c1ccncc1
% Inhibition: 4%
Z score: -0.37

Cc1ncc2n1C[C@@H](C(=O)NCc1nc3c(s1)CCCC3)CC2
% Inhibition: 0%
Z score: 0.05

CCc1nc(C)c(-c2c(-c3ccccc3)ncn2[C@@H](C)c2ncn[nH]2)[nH]1
% Inhibition: 0%
Z score: -0.06

Cn1cc(Br)c(C(=O)N2CCn3nccc32)cc1=O
% Inhibition: -18%
Z score: 2.92

COc1ccc(Cl)cc1NC(=O)N1CCC[C@H](Oc2ccncc2Cl)C1
% Inhibition: 20%
Z score: -2.77

O=C(CN1C(=O)c2ccccc2Oc2ncccc21)NCCc1ccccc1
% Inhibition: 0%
Z score: -0.03

Cc1ccccc1CS(=O)(=O)N(C)C1CC(O)C1 (stereo unspecified)
% Inhibition: -12%
Z score: 1.57

CC(=O)Oc1c(-c2ccc(NC(=O)c3ccc(F)cc3)cc2)c(-c2cccc(F)c2)nn1-c1ccc(C)cc1
% Inhibition: -10%
Z score: 1.4

C[C@@H]1NC(=O)N(c2ccccc2NC(=O)c2cc(Cl)cn2C)C1=O
% Inhibition: -10%
Z score: 1.67

COc1ccc(-c2nc(CN3CC[C@H](NC(C)=O)C3)c(C)o2)c2ccccc12
% Inhibition: -21%
Z score: 2.72

CC1CCCCC1NC(=O)c1cccc(N(C)C)c1 (stereo unspecified)
% Inhibition: -8%
Z score: 1.21

CC(C)(C)OC(=O)N1CCC[C@H]1C(=O)Nc1cccc2ccccc12
% Inhibition: 1%
Z score: -0.12

c1ccc(-c2ccc(-c3n[nH]cc3CN3CCC(N4CCOCC4)CC3)cc2)cc1
% Inhibition: 7%
Z score: -0.84

CCn1nnc2cc(-c3nc(C4CC4)no3)ccc21
% Inhibition: -6%
Z score: 0.8

O=C(c1ccc(-c2ccsc2)cc1)N1CCCNCC1
% Inhibition: 1%
Z score: -0.18

Cc1ccc2c(Nc3ccc(C(C)C)cc3)c(C(=O)N3CCCC3)cnc2n1
% Inhibition: -6%
Z score: 1.15

CCOc1ccc(NC(=O)c2ccoc2COc2ccccc2)cc1
% Inhibition: 7%
Z score: -0.9

COCCN(C)Cc1nc(-c2ccc(F)c(F)c2)nn1CCO
% Inhibition: -6%
Z score: 1.19

O=C(c1cn2c(n1)CCCC2)N1CCN(c2cccc(Cl)c2)CC1
% Inhibition: -4%
Z score: 0.71

COc1ccc(C(C)C)cc1CN1CCN(C(C)=O)[C@H]2CS(=O)(=O)C[C@H]21
% Inhibition: 5%
Z score: -0.64

OCCOc1cncc(N2CCc3ccccc3CC2)n1
% Inhibition: -8%
Z score: 0.78

O=C(N[C@@H]1[C@H]2CCO[C@H]2[C@H]1Cc1ccccc1)c1n[nH]c2c1CCCC2
% Inhibition: -1%
Z score: 0.21

Cc1ccccc1NC(=O)N1C[C@H]2CC[C@@H](C1)N(Cc1c(C)noc1C)C2=O
% Inhibition: -10%
Z score: 1.22

O=C(Cn1c2c(c(=O)n(C3CCCCC3)c1=O)CCC2)Nc1cccc(F)c1
% Inhibition: -4%
Z score: 0.69

Cc1[nH]c2ccccc2c1C1CCN(C(=O)CN2CCCC2=O)CC1
% Inhibition: -7%
Z score: 0.94

O=C(c1ccc2c(c1)OCCO2)N1C[C@@H](CO)C[C@@H](CN2CCOCC2)C1
% Inhibition: -11%
Z score: 1.08

CCn1cnnc1C[C@H]1CCN(S(=O)(=O)Cc2ccccc2F)C1
% Inhibition: 6%
Z score: -1.06

COc1cc(CN2CCCN(c3ccc(C)cc3NC(=O)OCc3ccccc3)C2=O)cc(OC)c1
% Inhibition: -5%
Z score: 0.79

O=C(Cc1ccc(Cl)c(Cl)c1)N(Cc1ccco1)[C@H]1CCS(=O)(=O)C1
% Inhibition: -4%
Z score: 0.55

CCc1ocnc1C(=O)N1CCOC[C@@H]1CCOC
% Inhibition: 0%
Z score: -0.03

O=c1ccc(C(F)(F)F)nn1Cc1nnnn1-c1ccccc1
% Inhibition: 2%
Z score: -0.22

FC(F)(F)c1ccccc1CCn1cnnc1
% Inhibition: -12%
Z score: 1.99

CN(Cc1ccc2c(ccn2C)c1)C1CCS(=O)(=O)CC1
% Inhibition: -9%
Z score: 1.01

Cc1[nH]nc(CCC(=O)N[C@@H](C)c2nc(-c3ccncc3)no2)c1C
% Inhibition: 5%
Z score: -0.45

Cc1nc(N)nc(C)c1C(=O)N1CC[C@@]12CCOC2
% Inhibition: 5%
Z score: -1.07

O=C([C@@H]1COc2ccccc2O1)N1CCOc2ccc(N3CCCC3)cc2C1
% Inhibition: -4%
Z score: 0.81

O[C@H]1CN(c2ncnc3ccsc23)C[C@@H]1N1CCN(c2ccccn2)CC1
% Inhibition: -2%
Z score: 0.16
